Results: ChEMBL document CHEMBL4888484, “Replenishing the malaria drug discovery pipeline: Screening and hit evaluation of the MMV Hit Generation Library 1 (HGL1) against asexual blood stage Plasmodium falciparum ,using a nano luciferase reporter read-out” (2022)
Hit rate of the full screen: of about 150,000 compounds, about 540 (0.36%) showed an effect of 50% or more. Some of the results follow.

What follows are compounds tested on Plasmodium falciparum (assay: Primary screen in NF54 nanoGlo assay, in single point, at 2uM, 72h; a lower Z score goes with more inhibition). Details: timepoint 72 hour.
Assay type: functional, Erythrocyte
In the case of `Cn1cc(C(=O)NC2CC(O)c3ccccc32)ccc1=O` (configuration not stated), the “% Inhibition” value is reported as -20% and the Z score is reported as 2.94. With `CC(C)C1CN(C(=O)C23CC(C(F)(F)F)(C2)C3)C1` the “% Inhibition” value was -10% and the Z score was 0.96. `Cc1cc(F)cc(CN2[C@@H]3CN(CCC(C)C)C[C@@H]3OCCS2(=O)=O)c1` was tested, and the “% Inhibition” value was -10% and the Z score was 1.82. In the case of `CC(C)C(=O)N1CCOc2ccc(CN3CCCCC3)cc2C1`, the “% Inhibition” value is reported as -10% and the Z score is reported as 1.1. `CC(C)C(=O)N1CCc2ccc(OC(C)C(=O)N(C)Cc3ccco3)cc2C1c1ccccc1` (configuration not stated) was tested, and the “% Inhibition” value was -12% and the Z score was 1.69. With `CC(C)Cc1cc(CN2Cc3ncccc3C2=O)on1` the “% Inhibition” value was 2% and the Z score was -0.35. With `C=C(C)CNC(=O)NC1CC(F)(F)C1` the “% Inhibition” value was -1% and the Z score was 0.12. With `Cc1cccc(N2C(=O)C3C4c5ccccc5C(C)(c5ccccc54)[C@@H]3C2=O)c1` (some centres not stated) the “% Inhibition” value was 5% and the Z score was -0.48. In the case of `COc1ccc(C(=O)Nc2cnn(C)c(=O)c2N2CCCCC2)cc1`, the “% Inhibition” value is reported as -11% and the Z score is reported as 2.07. With `O=C(O)[C@H]1C[C@@H](C(=O)Nc2ccc(F)cc2)CN(Cc2ccsc2)C1` the “% Inhibition” value was -9% and the Z score was 1.66. For `CNC(=O)c1ccc(CN(C)CC2(O)CCC(C)CC2)o1` (configuration not stated), the “% Inhibition” value was -1% and the Z score was 0.13. With `O=C(NCc1cccs1)N1CC(F)C1` the “% Inhibition” value was -6% and the Z score was 0.9. With `COc1cccc(-c2nc3sc(-c4cccc(OC)c4)nc3s2)c1` the “% Inhibition” value was -4% and the Z score was 0.57. In the case of `O=C(CNC(=O)c1cccs1)Nc1ccncc1`, the “% Inhibition” value is reported as 2% and the Z score is reported as -0.23. For `O=C(C1=COCCO1)N1CCCc2ccccc21`, the “% Inhibition” value was -7% and the Z score was 1.3. `CN1C(=O)C2(OCC(COc3ccc(Cl)cc3)O2)c2ccccc21` (configuration not stated) was tested, and the “% Inhibition” value was -7% and the Z score was 0.78. With `Cc1c([C@H](C)NC2CCN(c3ccc4c(c3)OCO4)CC2)cnn1-c1ccc(C#N)cc1` the “% Inhibition” value was -15% and the Z score was 2.7. For `COC[C@@]12CN(C(C)=O)CC[C@@H]1CN(C(=O)CCc1ccccc1OC)C2`, the “% Inhibition” value was 2% and the Z score was -0.29. In the case of `CCOc1ccccc1NC(=O)Cn1nc2c3ccc(F)cc3ncn2c1=O`, the “% Inhibition” value is reported as 6% and the Z score is reported as -0.94. With `Cc1ccc2[nH]c([C@H](C(C)C)n3cc(-c4ccc(CO)o4)nn3)nc2c1` the “% Inhibition” value was -16% and the Z score was 2.23. `Fc1ccc(Br)c2c1CC[C@@H]2NCCn1ccnc1` was tested, and the “% Inhibition” value was -11% and the Z score was 1.34. With `CO[C@@H](C)c1ccc(-c2cnc3nnc(C)n3c2)cc1` the “% Inhibition” value was -3% and the Z score was 0.47. In the case of `C=CCOc1ccccc1CN(CC)C(=O)C1CCS(=O)(=O)CC1`, the “% Inhibition” value is reported as -5% and the Z score is reported as 0.71. With `O=C(Nc1ccc2c(c1)OCO2)C1CCN(C(=O)c2cc3c(s2)CCCCCC3)CC1` the “% Inhibition” value was -9% and the Z score was 1.85. `Cc1ccc(CNC(=O)Cn2cnc3c(nnn3C)c2=O)cc1` was tested, and the “% Inhibition” value was -1% and the Z score was 0.15. `C#CCN1CCC(C(=O)N(CC(=O)OCC)C2CCCCC2)CC1` was tested, and the “% Inhibition” value was -12% and the Z score was 1.35. `CC(NC1CCCCC1C)c1nccs1` (configuration not stated) was tested, and the “% Inhibition” value was -14% and the Z score was 2.13. `CCc1cnc(NC[C@@H](CO)Cc2cccs2)nc1` was tested, and the “% Inhibition” value was -11% and the Z score was 1.77. With `COc1cc(CN2CCC[C@H]2C(=O)NCC2CCCCC2)cc(OC)c1O` the “% Inhibition” value was 2% and the Z score was -0.3. `CC(C)N1CCC(N(C)CC(=O)N[C@@H](C)c2ccccc2)CC1` was tested, and the “% Inhibition” value was -13% and the Z score was 1.67. For `Cc1ccc(-c2ccc(C(=O)NCc3cccnc3)o2)cc1Cl`, the “% Inhibition” value was -10% and the Z score was 1.4. `CC[C@H]1CN(C(=O)Cn2cc(C(F)(F)F)ccc2=O)CCO1` was tested, and the “% Inhibition” value was -9% and the Z score was 1.12. With `Cc1noc(C)c1[C@H](C)NCc1cc2ccccc2s1` the “% Inhibition” value was -8% and the Z score was 0.91. `COc1ccc(NC(=O)C/C(N)=N/O)cc1` was tested, and the “% Inhibition” value was -6% and the Z score was 0.72. In the case of `CC(=O)N1CCN(C2CN(Cc3nc(C)c(C)o3)CC2C)CC1` (configuration not stated), the “% Inhibition” value is reported as -11% and the Z score is reported as 1.57. In the case of `c1cc2c(cc1-c1noc([C@H]3CCCc4[nH]ncc43)n1)OCO2`, the “% Inhibition” value is reported as -15% and the Z score is reported as 2.15. `C#CCN(C)S(=O)(=O)Cc1ccc(C)c(F)c1` was tested, and the “% Inhibition” value was -1% and the Z score was 0.21. For `COc1ccccc1-n1c(=O)n2n(c1=O)CCCC2`, the “% Inhibition” value was 14% and the Z score was -1.45. `C[C@H](NC(=O)c1cc2c(s1)CCCCC2)c1nncn1C` was tested, and the “% Inhibition” value was -20% and the Z score was 2.39. `O=C1[C@@H]2CCCN2C(=O)N1CCCc1ccc(Cl)cc1` was tested, and the “% Inhibition” value was -11% and the Z score was 1.76. For `Cc1cc(C)c(C(=O)N2CCC(NC(=O)c3ccncc3)CC2)[nH]1`, the “% Inhibition” value was 3% and the Z score was -0.27. In the case of `O=C(c1nc2ccccc2s1)N1C2C=CCC1CC2` (configuration not stated), the “% Inhibition” value is reported as -6% and the Z score is reported as 1.1. In the case of `CCCCc1nc(-c2nccn2C[C@H]2CN(C(C)=O)CCO2)c[nH]1`, the “% Inhibition” value is reported as -8% and the Z score is reported as 1.49. With `CC(C)NC(=O)Cc1cccn1-c1cccc(Cl)c1` the “% Inhibition” value was -4% and the Z score was 0.54. With `Cc1c(C(=O)N2C[C@H](C)OCC2(C)C)nnn1-c1ccn(C)n1` the “% Inhibition” value was -12% and the Z score was 2.27. `COC(=O)c1ccc2c(c1)CC[C@H](NCc1ccc(C)cn1)C(=O)N2` was tested, and the “% Inhibition” value was -18% and the Z score was 1.56. In the case of `Cc1ccc(CN2CC[C@H](O)CC(C)(C)C2)o1`, the “% Inhibition” value is reported as 14% and the Z score is reported as -1.96. With `O=C(NCC1CCCCCCC1)c1nc(=O)[nH][nH]1` the “% Inhibition” value was -14% and the Z score was 1.36. With `CCCn1ncc(CN(C)CCOc2cc(C)ccc2C)c1C` the “% Inhibition” value was -4% and the Z score was 0.74. For `COc1cc(NC(=O)N(CC(=O)N2c3ccccc3-n3cccc3[C@H]2c2cccc(Cl)c2)C(C)C)cc(OC)c1`, the “% Inhibition” value was 7% and the Z score was -0.77. In the case of `CN(C)C(=O)CO[C@H]1COCC[C@@H]1NC(=O)c1n[nH]c2ccccc12`, the “% Inhibition” value is reported as -14% and the Z score is reported as 1.27. For `COc1ccc(N2C(=O)[C@@H]3CCCN3[C@H]2c2ccc(OC)c(OC)c2)cc1`, the “% Inhibition” value was 7% and the Z score was -0.86. For `Cc1ccccc1CN1CCCN(C(=O)c2csnn2)CC1`, the “% Inhibition” value was 7% and the Z score was -0.85. `C[C@H]1CN(S(=O)(=O)CCCN2C(=O)c3ccccc3C2=O)CCO1` was tested, and the “% Inhibition” value was -8% and the Z score was 1.32. `Cc1ccccc1-c1nnc2c3ccccc3nc(N3CCN(C(=O)c4ccco4)CC3)n12` was tested, and the “% Inhibition” value was -8% and the Z score was 1.04. In the case of `Cc1ccc(CNC(=O)Cn2nc3c4ccc(F)cc4ncn3c2=O)cc1`, the “% Inhibition” value is reported as -1% and the Z score is reported as 0.23. In the case of `Cn1ccnc1CC[C@H]1CCCCN1Cc1noc(C2CCCC2)n1`, the “% Inhibition” value is reported as -22% and the Z score is reported as 2.15. With `Cc1cc(=O)n2c3c(c(C#N)c2[nH]1)CCCC3` the “% Inhibition” value was -9% and the Z score was 1.07. For `Cc1cc(CN2CCN(CC3CCCCC3)[C@@H](CCO)C2)[nH]n1`, the “% Inhibition” value was -4% and the Z score was 0.6. `COC(=O)[C@@H](C)NCc1cc(O)cc(F)c1` was tested, and the “% Inhibition” value was 7% and the Z score was -1.24. With `C=CCNS(=O)(=O)C1CON(C)C1c1ccc(N(C)C)cc1` (configuration not stated) the “% Inhibition” value was -13% and the Z score was 1.49. For `COC1CCCC(CC(=O)N2CCCC(C(C)(C)C(=O)O)C2)C1` (configuration not stated), the “% Inhibition” value was -2% and the Z score was 0.33. For `NC(=O)c1ccc(S(=O)(=O)Cl)cc1`, the “% Inhibition” value was -18% and the Z score was 2.87. `O=C(N[C@H]1CCCOCC1)N(Cc1ccccc1)C1CCCCC1` was tested, and the “% Inhibition” value was -8% and the Z score was 1.09. In the case of `CN(CCO)c1cc2c(F)cccc2cn1`, the “% Inhibition” value is reported as 1% and the Z score is reported as -0.06. With `Clc1ccc(-c2cc(-c3cccnc3)nc3ccc4ccccc4c23)cc1` the “% Inhibition” value was 5% and the Z score was -0.97. With `CCCc1n[nH]cc1C(=O)N1C[C@@H]2CC[C@H]1CN(Cc1cccnc1)C2` the “% Inhibition” value was -1% and the Z score was 0.19. For `Cc1nccn1-c1ncc(NC(=O)c2ccc(F)cc2Cl)cn1`, the “% Inhibition” value was -10% and the Z score was 1.6. With `COCCC1(NC(=O)C2CCOCC2)CCN(Cc2ccc(O)cc2)CC1` the “% Inhibition” value was -13% and the Z score was 1.67. `Cc1cccc(N2CCN(C(=O)Cn3nc(C)c4c(C)onc4c3=O)C[C@@H]2C)c1` was tested, and the “% Inhibition” value was 8% and the Z score was -0.94. In the case of `CCc1nccn1Cc1nc(C2CCCCC2)no1`, the “% Inhibition” value is reported as -26% and the Z score is reported as 2.33. With `C[C@@H](CC(=O)N1CC(Nc2ncccn2)C1)c1ccccc1` the “% Inhibition” value was -12% and the Z score was 1.44. In the case of `CCCCN1CCN(C(=O)c2cccc3c2CCN3C(=O)Nc2ccccc2)CC1`, the “% Inhibition” value is reported as -6% and the Z score is reported as 1.03. In the case of `O=C(O)[C@H]1CN(c2cc(C3CC3)ncn2)C[C@@H]1C1CC1`, the “% Inhibition” value is reported as -8% and the Z score is reported as 1.28. With `CC(C)C[C@H](NC(=O)Nc1cccc(F)c1)C(=O)Nc1cc[nH]n1` the “% Inhibition” value was -11% and the Z score was 2.4. In the case of `CC(C)(C)[C@@H]1NC(=O)CC[C@H]1NC(=O)c1ccc(-n2cnnn2)cc1`, the “% Inhibition” value is reported as -14% and the Z score is reported as 1.28. In the case of `CC(C)C(=O)N1CCC(CN2C[C@@H](C(=O)N3CCOCC3)CC2=O)CC1`, the “% Inhibition” value is reported as -10% and the Z score is reported as 1.31. With `CC(C)c1csc(CN2C[C@H](C3CC3)[C@@H](N)C2)n1` the “% Inhibition” value was 10% and the Z score was -1.28. In the case of `CS(=O)(=O)[C@H]1CCCN(C(=O)c2ccc3[nH]ncc3c2)CC1`, the “% Inhibition” value is reported as -1% and the Z score is reported as 0.12. `CN1CCCN(S(=O)(=O)c2cccnc2)c2cc(F)ccc21` was tested, and the “% Inhibition” value was -13% and the Z score was 2.4. For `COc1ccc(NC(=O)Cn2c(C)ncc(-c3nc(-c4ccccc4)cs3)c2=O)cc1`, the “% Inhibition” value was -2% and the Z score was 0.33. `COCCN1C[C@@H](c2nc(C(=O)OC)c(C)[nH]2)CC1=O` was tested, and the “% Inhibition” value was 2% and the Z score was -0.41. For `Cc1ccc([C@H](CNC(=O)COc2c(C)cccc2C)N(C)C)o1`, the “% Inhibition” value was -5% and the Z score was 0.83. For `Cc1cc(C)n(CCN(C)C(=O)C2(C)COC2)n1`, the “% Inhibition” value was 5% and the Z score was -0.81. With `CCCCC(=O)N1CCC(N(Cc2ccc(Cl)cc2)C(=O)CN(CCOC)S(=O)(=O)CCC)CC1` the “% Inhibition” value was -2% and the Z score was 0.31. For `CCOC(=O)[C@H]1CCCN(C(=O)c2c[nH]c(C(=O)N3CCCC3)c2)C1`, the “% Inhibition” value was 15% and the Z score was -1.87.
